{
  "source": "paper PMC9911399",
  "about": "“Two distinct binding modes provide the RNA-binding protein RbFox with extraordinary sequence specificity”",
  "binders": {"B1": {"name": "ACUAUCA (DNA:RNA)", "RNA": "GGGAGACCGGAAUUCAGAUUGUCCACUAUCAUUAAAUCCCGUCGUAGCCACCA", "DNA 1": "CAATCTGAATTCCGGTCTCCC", "DNA 2": "TGGTGGCTACGACGGGATT"}, "B2": {"name": "AUCGGUU (DNA:RNA)", "RNA": "B1 RNA with C26U, U27C, A28G, U29G, C30U, A31U", "DNA 1": "CAATCTGAATTCCGGTCTCCC", "DNA 2": "TGGTGGCTACGACGGGATT"}, "B3": {"name": "CUACUGC (DNA:RNA)", "RNA": "B1 RNA with A25C, C26U, U27A, A28C, C30G, A31C", "DNA 1": "CAATCTGAATTCCGGTCTCCC", "DNA 2": "TGGTGGCTACGACGGGATT"}, "B4": {"name": "CCUUGUG (DNA:RNA)", "RNA": "B1 RNA with A25C, A28U, U29G, C30U, A31G", "DNA 1": "CAATCTGAATTCCGGTCTCCC", "DNA 2": "TGGTGGCTACGACGGGATT"}, "B5": {"name": "CCGAGAA (DNA:RNA)", "RNA": "B1 RNA with A25C, U27G, U29G, C30A", "DNA 1": "CAATCTGAATTCCGGTCTCCC", "DNA 2": "TGGTGGCTACGACGGGATT"}, "B6": {"name": "UACACUU (DNA:RNA)", "RNA": "B1 RNA with A25U, C26A, U27C, U29C, C30U, A31U", "DNA 1": "CAATCTGAATTCCGGTCTCCC", "DNA 2": "TGGTGGCTACGACGGGATT"}, "B7": {"name": "CAAGAGC (DNA:RNA)", "RNA": "GGGAGACCGGAAUUCAGAUUGUCCCAAGAGCUUAAAUCCCGUCGUAGCCACCA", "DNA 1": "CAATCTGAATTCCGGTCTCCC", "DNA 2": "TGGTGGCTACGACGGGATT"}, "B8": {"name": "AAAUAUU (DNA:RNA)", "RNA": "B7 RNA with C25A, G28U, G30U, C31U", "DNA 1": "CAATCTGAATTCCGGTCTCCC", "DNA 2": "TGGTGGCTACGACGGGATT"}, "B9": {"name": "UAUUCGU (DNA:RNA)", "RNA": "B7 RNA with C25U, A27U, G28U, A29C, C31U", "DNA 1": "CAATCTGAATTCCGGTCTCCC", "DNA 2": "TGGTGGCTACGACGGGATT"}, "B10": {"name": "UCAAAUC (DNA:RNA)", "RNA": "B7 RNA with C25U, A26C, G28A, G30U", "DNA 1": "CAATCTGAATTCCGGTCTCCC", "DNA 2": "TGGTGGCTACGACGGGATT"}, "B11": {"name": "GCACCCA (DNA:RNA)", "RNA": "B1 RNA with A25G, U27A, A28C, U29C", "DNA 1": "CAATCTGAATTCCGGTCTCCC", "DNA 2": "TGGTGGCTACGACGGGATT"}, "B12": {"name": "AGGCAGU (DNA:RNA)", "RNA": "B7 RNA with C25A, A26G, A27G, G28C, C31U", "DNA 1": "CAATCTGAATTCCGGTCTCCC", "DNA 2": "TGGTGGCTACGACGGGATT"}, "B13": {"name": "UGGUGCC (DNA:RNA)", "RNA": "B1 RNA with A25U, C26G, U27G, A28U, U29G, A31C", "DNA 1": "CAATCTGAATTCCGGTCTCCC", "DNA 2": "TGGTGGCTACGACGGGATT"}, "B14": {"name": "UCAUGAG (DNA:RNA)", "RNA": "B1 RNA with A25U, U27A, A28U, U29G, C30A, A31G", "DNA 1": "CAATCTGAATTCCGGTCTCCC", "DNA 2": "TGGTGGCTACGACGGGATT"}, "B15": {"name": "UAUCGUA (DNA:RNA)", "RNA": "B1 RNA with A25U, C26A, A28C, U29G, C30U", "DNA 1": "CAATCTGAATTCCGGTCTCCC", "DNA 2": "TGGTGGCTACGACGGGATT"}, "B16": {"name": "GGGUUUU (DNA:RNA)", "RNA": "B1 RNA with A25G, C26G, U27G, A28U, C30U, A31U", "DNA 1": "CAATCTGAATTCCGGTCTCCC", "DNA 2": "TGGTGGCTACGACGGGATT"}, "B17": {"name": "GCGCUAA (DNA:RNA)", "RNA": "B1 RNA with A25G, U27G, A28C, C30A", "DNA 1": "CAATCTGAATTCCGGTCTCCC", "DNA 2": "TGGTGGCTACGACGGGATT"}, "B18": {"name": "AGCGUAG (DNA:RNA)", "RNA": "B1 RNA with C26G, U27C, A28G, C30A, A31G", "DNA 1": "CAATCTGAATTCCGGTCTCCC", "DNA 2": "TGGTGGCTACGACGGGATT"}, "B19": {"name": "UCCGUGU (DNA:RNA)", "RNA": "B1 RNA with A25U, U27C, A28G, C30G, A31U", "DNA 1": "CAATCTGAATTCCGGTCTCCC", "DNA 2": "TGGTGGCTACGACGGGATT"}, "B20": {"name": "UCAGAGU (DNA:RNA)", "RNA": "B7 RNA with C25U, A26C, C31U", "DNA 1": "CAATCTGAATTCCGGTCTCCC", "DNA 2": "TGGTGGCTACGACGGGATT"}, "B21": {"name": "ACCUGGU (DNA:RNA)", "RNA": "B1 RNA with U27C, A28U, U29G, C30G, A31U", "DNA 1": "CAATCTGAATTCCGGTCTCCC", "DNA 2": "TGGTGGCTACGACGGGATT"}, "B22": {"name": "UGUCUUA (DNA:RNA)", "RNA": "B1 RNA with A25U, C26G, A28C, C30U", "DNA 1": "CAATCTGAATTCCGGTCTCCC", "DNA 2": "TGGTGGCTACGACGGGATT"}, "B23": {"name": "AGCGUUG (DNA:RNA)", "RNA": "B1 RNA with C26G, U27C, A28G, C30U, A31G", "DNA 1": "CAATCTGAATTCCGGTCTCCC", "DNA 2": "TGGTGGCTACGACGGGATT"}, "B24": {"name": "AGACACU (DNA:RNA)", "RNA": "B1 RNA with C26G, U27A, A28C, U29A, A31U", "DNA 1": "CAATCTGAATTCCGGTCTCCC", "DNA 2": "TGGTGGCTACGACGGGATT"}, "B25": {"name": "CCUUGGG (DNA:RNA)", "RNA": "B1 RNA with A25C, A28U, U29G, C30G, A31G", "DNA 1": "CAATCTGAATTCCGGTCTCCC", "DNA 2": "TGGTGGCTACGACGGGATT"}, "B26": {"name": "CGGAAAU (DNA:RNA)", "RNA": "B7 RNA with A26G, A27G, G28A, G30A, C31U", "DNA 1": "CAATCTGAATTCCGGTCTCCC", "DNA 2": "TGGTGGCTACGACGGGATT"}, "B27": {"name": "GGGCGGG (DNA:RNA)", "RNA": "B7 RNA with C25G, A26G, A27G, G28C, A29G, C31G", "DNA 1": "CAATCTGAATTCCGGTCTCCC", "DNA 2": "TGGTGGCTACGACGGGATT"}, "B28": {"name": "AUAGCGG (DNA:RNA)", "RNA": "B7 RNA with C25A, A26U, A29C, C31G", "DNA 1": "CAATCTGAATTCCGGTCTCCC", "DNA 2": "TGGTGGCTACGACGGGATT"}, "B29": {"name": "UUUAUGG (DNA:RNA)", "RNA": "B1 RNA with A25U, C26U, C30G, A31G", "DNA 1": "CAATCTGAATTCCGGTCTCCC", "DNA 2": "TGGTGGCTACGACGGGATT"}, "B30": {"name": "CAUACGG (DNA:RNA)", "RNA": "B7 RNA with A27U, G28A, A29C, C31G", "DNA 1": "CAATCTGAATTCCGGTCTCCC", "DNA 2": "TGGTGGCTACGACGGGATT"}, "B31": {"name": "AUUGCGA (DNA:RNA)", "RNA": "B1 RNA with C26U, A28G, U29C, C30G", "DNA 1": "CAATCTGAATTCCGGTCTCCC", "DNA 2": "TGGTGGCTACGACGGGATT"}},
  "note": "Numbering of substitutions follows the chain as printed; changes in the protein carry UniProt numbers. The list shows a part of the results.",
  "data": [
    {"target": "T1, RBFOX1 RRM (Homo sapiens, UniProt Q9NWB1 109-208)", "T1 sequence": "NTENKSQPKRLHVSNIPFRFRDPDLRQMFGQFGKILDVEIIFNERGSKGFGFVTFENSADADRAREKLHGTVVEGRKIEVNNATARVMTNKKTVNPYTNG", "assay": "EMSA; HiTS-Eq, 1 nM pool, 10 min; buffer printed only for the single-RNA assays: 10 mM Tris pH 7.5, 150 mM NaCl, 3.4 mM EDTA, 0.001% NP-40, 30 C", "settings": "tags: His6 N-terminal (pET28a); label: 5' 32P", "summary_of_the_method": "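A pool of RNA with 7 randomized nucleotides, 5′-radiolabelled and with DNA-annealed flanks, was equilibrated at 1 nM for 10 min in 50 µL with purified RbFox RRM, wild type or mutant, across increasing protein concentrations. Free RNA was separated by 8% native PAGE, excised, reverse-transcribed, barcoded by PCR and sequenced. Relative association constants were obtained from read-count changes of each RNA species versus the control reaction and normalised to the cognate motif.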", "values": [
      {"binder": "B1", "binding signal": "0.00217 KA relative to UGCAUGU"},
      {"binder": "B2", "binding signal": "0.0121 KA relative to UGCAUGU"},
      {"binder": "B3", "binding signal": "0.0129 KA relative to UGCAUGU"},
      {"binder": "B4", "binding signal": "0.0165 KA relative to UGCAUGU"},
      {"binder": "B5", "binding signal": "0.0108 KA relative to UGCAUGU"},
      {"binder": "B6", "binding signal": "0.00111 KA relative to UGCAUGU"},
      {"binder": "B7", "binding signal": "0.00561 KA relative to UGCAUGU"},
      {"binder": "B8", "binding signal": "0.00092 KA relative to UGCAUGU"},
      {"binder": "B9", "binding signal": "0.0188 KA relative to UGCAUGU"},
      {"binder": "B10", "binding signal": "0.000633 KA relative to UGCAUGU"},
      {"binder": "B11", "binding signal": "0.00375 KA relative to UGCAUGU"},
      {"binder": "B12", "binding signal": "0.0121 KA relative to UGCAUGU"},
      {"binder": "B13", "binding signal": "0.0219 KA relative to UGCAUGU"},
      {"binder": "B14", "binding signal": "0.0138 KA relative to UGCAUGU"},
      {"binder": "B15", "binding signal": "0.00791 KA relative to UGCAUGU"},
      {"binder": "B16", "binding signal": "0.0323 KA relative to UGCAUGU"},
      {"binder": "B17", "binding signal": "0.0126 KA relative to UGCAUGU"},
      {"binder": "B18", "binding signal": "0.0147 KA relative to UGCAUGU"},
      {"binder": "B19", "binding signal": "0.0135 KA relative to UGCAUGU"},
      {"binder": "B20", "binding signal": "0.00735 KA relative to UGCAUGU"},
      {"binder": "B21", "binding signal": "0.0103 KA relative to UGCAUGU"},
      {"binder": "B22", "binding signal": "0.0106 KA relative to UGCAUGU"},
      {"binder": "B23", "binding signal": "0.0153 KA relative to UGCAUGU"},
      {"binder": "B24", "binding signal": "0.00426 KA relative to UGCAUGU"},
      {"binder": "B25", "binding signal": "0.00389 KA relative to UGCAUGU"},
      {"binder": "B26", "binding signal": "0.0202 KA relative to UGCAUGU"},
      {"binder": "B27", "binding signal": "0.0189 KA relative to UGCAUGU"},
      {"binder": "B28", "binding signal": "0.00769 KA relative to UGCAUGU"},
      {"binder": "B29", "binding signal": "0.00508 KA relative to UGCAUGU"},
      {"binder": "B30", "binding signal": "0.00363 KA relative to UGCAUGU"},
      {"binder": "B31", "binding signal": "0.0121 KA relative to UGCAUGU"}
    ]}
  ]
}
